Data on 58 compounds can be found in PubChem BioAssay AID360 (National Center for Advancing Translational Sciences (NCATS), 2006).

Out of some 48,000 compounds screened, about 550 (1.1%) were called active. Roughly 4% stayed inconclusive and do not appear here. Cut-off read from the data, not from the text of the source: active = potency below about 15 µM; inconclusive = mostly about 16 µM to 33 µM; inactive = weaker than that. The list shows a part of the results.
Potency is the fitted concentration of half-maximal effect.

The experiment addresses Lysosomal acid glucosylceramidase (Homo sapiens) (UniProt P04062). Put plainly: Glucocerebrosidase.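 Note: the screen sought inhibitors.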 The note with it: purified enzyme, resorufin glucoside fluorescence (screen aimed at inhibitors), 20 min. The method in brief: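 Normal human glucocerebrosidase (0.2 nM final) was assayed with resorufin β-D-glucopyranoside (30 uM final) in 50mM citric acid/KH2PO4, 10mM sodium taurocholate, 0.01% tween-20, pH 5.9. Compounds were titrated; fluorescence (Ex 548, Em 600) read after 20 min at RT.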
UniProt P04062, sequence (P04062 whole entry, looked up): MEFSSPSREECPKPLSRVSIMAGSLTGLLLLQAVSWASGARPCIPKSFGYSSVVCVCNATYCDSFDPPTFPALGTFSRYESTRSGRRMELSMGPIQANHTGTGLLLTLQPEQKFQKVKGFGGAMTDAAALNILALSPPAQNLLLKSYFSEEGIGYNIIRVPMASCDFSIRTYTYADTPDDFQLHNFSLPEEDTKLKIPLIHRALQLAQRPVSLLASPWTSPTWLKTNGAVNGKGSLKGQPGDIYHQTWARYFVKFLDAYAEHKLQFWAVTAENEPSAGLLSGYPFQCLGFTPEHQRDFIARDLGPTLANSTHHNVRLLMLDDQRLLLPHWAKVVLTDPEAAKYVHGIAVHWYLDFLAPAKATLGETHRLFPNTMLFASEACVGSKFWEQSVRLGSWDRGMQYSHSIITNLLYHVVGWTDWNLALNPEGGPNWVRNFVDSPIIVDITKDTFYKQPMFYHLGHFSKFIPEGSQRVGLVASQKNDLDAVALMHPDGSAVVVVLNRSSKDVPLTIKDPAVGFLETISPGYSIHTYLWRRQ
As for `Cc1cccc(N(C)C(=O)CCS(=O)(=O)c2cccc3nonc23)c1`, the Potency was inactive: > 76.9 µM.
Next, `Cn1cnc2c1c(=O)n(Cc1ccc(F)cc1Cl)c(=O)n2C`: inactive: > 76.9 µM; `Cc1ccc2oc(-c3ccc(NC(=O)c4cccnc4)cc3)nc2c1`: inactive: > 76.9 µM.
`COCCNC(=O)COc1cccc(Oc2ccccc2)c1`: the Potency is inactive: > 76.9 µM.
For the compound `O=C1c2cccc3c(Cl)ccc(c23)C(=O)N1O`, the Potency is inactive: > 76.9 µM.
Consider `CCOc1ccc(N(CC(=O)Nc2ccc(OC)cc2)S(C)(=O)=O)cc1`, for which the Potency is inactive: > 76.9 µM.
With `CCOc1ccc(-c2nnn(CC(=O)N3CCN(c4ccc(F)cc4)CC3)n2)cc1OCC` the figure was inactive: > 76.9 µM; with `CCOC(=O)CNC(=O)CN1C(=O)CCS(=O)(=O)c2ccccc21`, inactive: > 76.9 µM; with `O=C(CCN1C(=O)c2ccccc2C1=O)OCn1nnc2ccccc2c1=O`, inactive: > 76.9 µM.
Regarding `CCOC(=O)c1csc(NC(=O)c2ccc(OC)c(OC)c2)n1`, the Potency was inactive: > 76.9 µM.
Next, `Cn1c(SCc2ccccn2)nnc1-c1cnccn1`: inactive: > 76.9 µM; `Cc1ccc(NC(=O)NC2CCCCC2)cc1Cl`: inactive: > 76.9 µM; `COc1cc2c(C(=O)Nc3ccc4c(c3)OCO4)cn(CC(C)C)c(=O)c2cc1OC`: inactive: > 76.9 µM.
With `COc1ccc(-n2c(=O)c3ccccc3n(CC(=O)NC3CCCC3)c2=O)cc1` the figure was inactive: > 76.9 µM.
With `COc1ccc(C2(C(=O)Nc3cc(C)on3)CCOCC2)cc1` the figure was inactive: > 76.9 µM; with `CS(=O)(=O)NCC(c1cccnc1)N1CCN(c2ccc(F)cc2)CC1` (stereo not drawn), inactive: > 76.9 µM.
On to `CC(C)(C)/C(O)=C(/C#N)c1nc2ccccc2[nH]1`, for which the Potency was inactive: > 76.9 µM.
Next, `CCCOc1cc(C)c(S(=O)(=O)NCCOC)cc1C`: inactive: > 76.9 µM; `COc1ccccc1CNC(=O)c1c(O)c2cc(OC)c(OC)cc2[nH]c1=O`: inactive: > 76.9 µM.
Consider `COc1ccc(N(C(=O)c2ccco2)S(=O)(=O)c2cccs2)cc1`, for which the Potency was inactive: > 76.9 µM.
On to `Cc1ccc(NC(=O)CN(C)C(=O)CN2C(=O)NC(C)(c3ccccc3)C2=O)cc1` (stereo not drawn), for which the Potency was inactive: > 76.9 µM.
With `Cc1nn(Cc2ccc(F)cc2)c(C)c1NC(=O)c1cnn2cccnc12` the figure was inactive: > 76.9 µM; with `C=CCn1c(SCC(=O)NCC2CCCO2)nnc1C1CCCCC1` (stereo not drawn), inactive: > 76.9 µM.
Next, `Cc1cc(Cl)c(S(=O)(=O)N2CCCCCC2)cc1OCC(N)=O`: inactive: > 76.9 µM.
With `COC(=O)c1cc(/C=C/c2ccccc2)on1` the figure was inactive: > 76.9 µM.
Regarding `c1ccc(C2COC(c3cccs3)=N2)cc1` (stereo not drawn), the Potency is inactive: > 76.9 µM.
Next, `COc1cccc(NC(=O)c2ccccc2-c2nc(-c3ccc(Cl)cc3)no2)c1`: inactive: > 76.9 µM; `CCn1c(SCC(=O)c2ccc(OC)cc2)nnc1C(C)NC(=O)c1ccc(OC)cc1` (stereo not drawn): inactive: > 76.9 µM.
For `CC1(C)C(=O)OC(c2c(F)c(F)c(F)c(F)c2F)C2(CCCCC2)C1=O` (stereo not drawn), the Potency is inactive: > 76.9 µM.
With `CCC(Oc1ccccc1)C(=O)N1CC(C)CC(C)C1` (stereo not drawn) the figure was inactive: > 76.9 µM; with `CCN(CCCNC(=O)COc1cc(=O)n(CC)c2ccccc12)c1ccccc1`, inactive: > 76.9 µM.
In the case of `Cc1ccc2cc(CN(CC3CCCO3)C(=O)NC3CCCCC3)c(=O)[nH]c2c1C` (stereo not drawn), the Potency is inactive: > 76.9 µM.
With `O=C(CCCCCN1C(=O)c2ccccc2C1=O)NCc1ccco1` the figure was inactive: > 76.9 µM.
With `O=C(NCc1ccccc1)c1cc(-n2cnnc2)ccc1Cl`, the Potency is inactive: > 76.9 µM.
Next, `Cc1noc(C)c1S(=O)(=O)NCC(=O)O`: inactive: > 76.9 µM.
With `COCCn1c(C)nc2oc3ccc(Br)cc3c(=O)c2c1=O` the figure was inactive: > 76.9 µM; with `COc1ccc(NC(=O)CN2CCN(C3c4ccccc4-c4ccccc43)CC2)c(OC)c1`, inactive: > 76.9 µM; with `Cc1ccc(CCNC(=O)C2CCCN(c3nc4ccccc4o3)C2)cc1` (stereo not drawn), inactive: > 76.9 µM.
With `Nc1nc(-c2cccc(NS(=O)(=O)c3ccccc3)c2)cs1` the entry was “inactive”.
As for `COc1ccc2[nH]c(=O)c(CN(Cc3nnnn3Cc3ccccc3)CC3CCCO3)cc2c1` (stereo not drawn), the Potency was inactive: > 76.9 µM.
`COc1ccc(Cl)c(S(=O)(=O)N2CCCC2)c1`: the Potency is inactive: > 76.9 µM.
Next, `CCN(CCCNC(=O)COc1cc(=O)n(C)c2ccccc12)c1ccccc1`: inactive: > 76.9 µM; `CC1Cc2ccccc2N1C(=O)CSC1=NCCS1` (stereo not drawn): inactive: > 76.9 µM; `CN(C(=O)CN1C(=O)c2ccccc2S1(=O)=O)c1ccccc1C(=O)O`: inactive: > 76.9 µM.
Next, `NC(=O)C1CCC(NC(=O)OCc2ccccc2)CC1` (stereo not drawn): inactive: > 76.9 µM.
Next, `COc1ccc2nc(Nc3ccc4c(c3)OCO4)sc2c1`: inactive: > 76.9 µM.
For `N#Cc1nc(-c2ccccc2)oc1NCCN1CCCCC1`, the Potency is inactive: > 76.9 µM.
With `COc1cccc(CNC(=O)C2CCN(S(=O)(=O)c3cnc[nH]3)CC2)c1`, the Potency is inactive: > 76.9 µM.
With `CCn1c(C)csc1=NC(=O)c1ccccc1`, the Potency was inactive: > 76.9 µM.
With `COc1cccc(-n2c(Cc3cc(=O)[nH]c(=O)[nH]3)nnc2SCC(=O)N2CCCC2)c1` the figure was inactive: > 76.9 µM; with `Cn1c(=O)[nH]c(=O)c2c1nc(N1CCCCCC1)n2CCSc1nc2ccccc2[nH]1`, “inactive”; with `COc1ccc(-c2nnc(CSc3nc4ccccc4c(=O)n3CC(C)C)o2)cc1OC`, inactive: > 76.9 µM.
Next, `COC(=O)c1ccc2c(=O)n(NC(C)=O)c(=S)[nH]c2c1`: inactive: > 76.9 µM.
As for `Cc1nnc(SCC(=O)Nc2ccc3c(c2)OCO3)o1`, the Potency is inactive: > 76.9 µM.
For `COc1ccc(-c2cc(C(F)(F)F)nc(N3CCCCCC3)n2)cc1`, the Potency was inactive: > 76.9 µM.
With `COc1ccc(CCNC(=O)CN(C)S(=O)(=O)c2cccc3nsnc23)cc1OC` the figure was inactive: > 76.9 µM.
Next, `Cc1cc(C(=O)OCC(=O)N2C(C)CCCC2C)c(C)o1` (stereo not drawn): inactive: > 76.9 µM; `O=C1CSC(c2cccc(F)c2)N1c1ccccc1F` (stereo not drawn): inactive: > 76.9 µM.
